Measurements taken from patent publication US20100015139A1 (published 2010).

B1: human factor B (other)
chain: TPWSLAWPQGSCSLEGVEIKGGSFRLLQEGQALEYVCPSGFYPYPVQTRTCRSTGSWSTLKTQDQKTVRKAECRAIHCPRPHDFENGEYWPRSPYYNVSDEISFHCYDGYTLRGSANRTCQVNGRWSGQTAICDNGAGYCSNPGIPIGTRKVGSQYRLEDSVTYHCSRGLTLRGSQRRTCQEGGSWSGTEPSCQDSFMYDTPQEVAEAFLSSLTETIEGVDAEDGHGPGEQQKRKIVLDPSGSMNIYLVLDGSDSIGASNFTGAKKCLVNLIEKVASYGVKPRYGLVTYATYPKIWVKVSEADSSNADWVTKQLNEINYEDHKLKSGTNTKKALQAVYSMMSWPDDVPPEGWNRTRHVIILMTDGLHNMGGDPITVIDEIRDLLYIGKDRKNPREDYLDVYVFGVGPLVNQVNINALASKKDNEQHVFKVKDMENLEDVFYQMIDESQSLSLCGMVWEHRKGTDYHKQPWQAKISVIRPSKGHESCMGAVVSEYFVLTAAHCFTVDDKEHSIKVSVGGEKRDLEIEVVLFHPNYNINGKKEAGIPEFYDYDVALIKLKNKLKYGQTIRPICLPCTEGTTRALRLPPTTTCQQQKEELLPAQDIKALFVSEEEKKLTRKEVYIKNGDKKGSCERDAQYAPGYDKVKDISEVVTPRFLCTGGVSPYADPNTCRGDSGGPLIVHKRSRFIQVGVISWGVVDVCKNQKRQKQVPAHARDFHINLFQVLPWLKEKLQDEDLGFL

How the values were obtained:
human iC3b = target: T1, human iC3b (human, UniProt P01024 23-667; P01024 749-1303; P01024 1321-1663, limits assumed); test: ELISA; factor B at various concentrations on iC3b-coated plates, with and without properdin
Sequence of human iC3b (P01024 23-667 limits assumed, chain 1 of 3): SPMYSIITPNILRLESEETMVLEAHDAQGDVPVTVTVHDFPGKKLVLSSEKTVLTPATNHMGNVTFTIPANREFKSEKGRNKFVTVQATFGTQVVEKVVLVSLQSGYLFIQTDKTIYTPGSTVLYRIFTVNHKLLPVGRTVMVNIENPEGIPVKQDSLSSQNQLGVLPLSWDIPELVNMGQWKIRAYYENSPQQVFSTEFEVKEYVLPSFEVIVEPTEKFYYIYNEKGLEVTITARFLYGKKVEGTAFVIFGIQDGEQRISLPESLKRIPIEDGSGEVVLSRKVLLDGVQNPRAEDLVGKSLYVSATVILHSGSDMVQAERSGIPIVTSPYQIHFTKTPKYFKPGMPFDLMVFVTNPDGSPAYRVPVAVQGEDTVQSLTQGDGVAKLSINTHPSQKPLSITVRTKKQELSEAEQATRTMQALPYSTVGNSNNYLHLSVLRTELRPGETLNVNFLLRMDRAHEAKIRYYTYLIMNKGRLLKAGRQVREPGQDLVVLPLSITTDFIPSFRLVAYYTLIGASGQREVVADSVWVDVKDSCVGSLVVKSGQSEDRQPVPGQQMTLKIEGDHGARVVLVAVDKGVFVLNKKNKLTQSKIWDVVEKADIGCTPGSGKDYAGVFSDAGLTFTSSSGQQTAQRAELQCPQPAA
Sequence of human iC3b (P01024 749-1303 limits assumed, chain 2 of 3): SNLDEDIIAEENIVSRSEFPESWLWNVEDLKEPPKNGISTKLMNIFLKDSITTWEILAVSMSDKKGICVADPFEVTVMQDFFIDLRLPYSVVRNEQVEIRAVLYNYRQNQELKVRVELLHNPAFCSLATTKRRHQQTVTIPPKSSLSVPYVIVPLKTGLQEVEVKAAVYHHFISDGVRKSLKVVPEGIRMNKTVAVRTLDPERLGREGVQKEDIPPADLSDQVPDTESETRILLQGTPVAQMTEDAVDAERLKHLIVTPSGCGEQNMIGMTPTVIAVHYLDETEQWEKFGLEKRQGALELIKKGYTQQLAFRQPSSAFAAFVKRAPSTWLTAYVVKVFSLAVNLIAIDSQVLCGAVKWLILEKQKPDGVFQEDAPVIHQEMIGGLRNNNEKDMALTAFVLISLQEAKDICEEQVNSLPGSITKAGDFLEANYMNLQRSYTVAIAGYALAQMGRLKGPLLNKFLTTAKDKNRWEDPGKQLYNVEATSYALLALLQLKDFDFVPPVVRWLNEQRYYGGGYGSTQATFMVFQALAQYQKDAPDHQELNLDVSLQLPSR
Sequence of human iC3b (P01024 1321-1663 limits assumed, chain 3 of 3): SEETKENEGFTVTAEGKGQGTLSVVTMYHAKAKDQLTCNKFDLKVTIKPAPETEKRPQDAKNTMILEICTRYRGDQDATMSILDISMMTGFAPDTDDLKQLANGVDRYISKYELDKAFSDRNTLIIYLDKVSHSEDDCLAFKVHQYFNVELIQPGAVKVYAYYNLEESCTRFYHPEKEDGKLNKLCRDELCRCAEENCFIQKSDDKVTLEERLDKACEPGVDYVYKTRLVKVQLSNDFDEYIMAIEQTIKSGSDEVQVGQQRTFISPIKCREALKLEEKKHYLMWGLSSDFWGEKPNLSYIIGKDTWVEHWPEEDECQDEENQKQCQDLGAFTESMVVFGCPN
T1 construct: Coated on plates

human C3c = target: T2, human C3c (human, UniProt P01024 23-667; P01024 749-954; P01024 1321-1663, limits assumed); test: ELISA; factor B at various concentrations on C3c-coated plates, with and without properdin
Sequence of human C3c (P01024 23-667 limits assumed, chain 1 of 3): as the sequence (P01024 23-667 limits assumed, chain 1 of 3) above
Sequence of human C3c (P01024 749-954 limits assumed, chain 2 of 3): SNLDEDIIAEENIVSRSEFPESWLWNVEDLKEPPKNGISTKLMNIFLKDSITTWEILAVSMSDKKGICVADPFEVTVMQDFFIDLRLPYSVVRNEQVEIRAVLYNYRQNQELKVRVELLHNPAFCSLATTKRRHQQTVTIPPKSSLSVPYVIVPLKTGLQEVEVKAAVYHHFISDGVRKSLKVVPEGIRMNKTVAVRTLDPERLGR
Sequence of human C3c (P01024 1321-1663 limits assumed, chain 3 of 3): as the sequence (P01024 1321-1663 limits assumed, chain 3 of 3) above
T2 construct: Coated on plates; also called Cc

human factor B = target: B1; test: ELISA; various concentrations of properdin added to substrate-bound factor B

| binding result (human iC3b) | binding result (human C3c) | binding result (human factor B) | Binder |
| --- | --- | --- | --- |
| no binding | no binding |  | B1 |
|  |  | no binding | properdin (other, UniProt P27918 28-469, looked up, also called factor P) DPVLCFTQYEESSGKCKGLLGGGVSVEDCCLNTAFAYQKRSGGLCQPCRSPRWSLWSTWAPCSVTCSEGSQLRYRRCVGWNGQCSGKVAPGTLEWQLQACEDQQCCPEMGGWSGWGPWEPCSVTCSKGTRTRRRACNHPAPKCGGHCPGQAQESEACDTQQVCPTHGAWATWGPWTPCSASCHGGPHEPKETRSRKCSAPEPSQKPPGKPCPGLAYEQRRCTGLPPCPVAGGWGPWGPVSPCPVTCGLGQTMEQRTCNHPVPQHGGPFCAGDATRTHICNTAVPCPVDGEWDSWGEWSPCIRRNMKSISCQEIPGQQSRGRTCRGRKFDGHRCAGQQQDIRHCYSIQHCPLKGSWSEWSTWGLCMPPCGPNPTRARQRLCTPLLPKYPPTVSMVEGQGEKNVTFWGRPLPRCEELQGQKLVVEEKRPCLHVPACKDPEEEEL |
